About 120 (0.25%) of roughly 48,000 compounds were called active. Not shown: some 4% with an inconclusive outcome. The call rests on the fitted dose curve; in most records, active means well fitted activation curve with a large enough effect; inconclusive means small, poorly fitted or top-dose-only effect, or another doubt; inactive means no such curve, though single readings can be large or run the other way. Some of the results follow.
Assay: Primary qHTS for Identification of Small Molecule Activators of Huntingtin-Antisense Promoter Activity; further: nearly all actives have a fitted effect of over 55% in size
Details: HEK293 HTT-AS promoter firefly luciferase reporter, 24 h; series mostly up to 57.5 µM; activity change, positive = activation: at the top concentration
Summary of the method: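 HEK293 Fluc reporter, 2,500 cells/well, 24 h pre-culture; cpds up to 57.5 uM final, 24 h 37 degrees C; Dual-Glo, 10 min RT; normalized vehicle = 0%, zero RLU = -100%.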

Activity change, positive = activation, inactive:
Cn1cc(S(=O)(=O)c2cccc(Cl)c2)c(=O)c2cc(F)c(N3CCN(c4ccccc4)CC3)cc21 -6.72%, Cc1ccc2c(=O)c(C(=O)c3cccc(Cl)c3)cn(CC(=O)Nc3ccc4c(c3)OCCO4)c2n1 -20.5%, CN1C(=O)Cc2cc(S(=O)(=O)CCC(=O)Nc3ccc(F)c(Cl)c3)ccc21 0.4%, CN(C)[C@@H]1C(=O)C(C(N)=O)=C(O)[C@@]2(O)C(=O)C3=C(O)c4c(O)ccc(Cl)c4[C@@H](O)[C@H]3C[C@@H]12 -6.03%, O=C(Nc1cc(F)ccc1F)N1CCC(CN2CCCC2)CC1 -3.99%, COc1ccc2c(c1)CCCC2=O 2.91%, COc1cc(C2c3c(-c4cc(C)ccc4O)n[nH]c3C(=O)N2CCCO)ccc1OCCC(C)C (stereo not given) -34.5%, CCc1ccccc1Nc1cc(C(=O)NC(C)c2ccccc2)c2ccccc2n1 (stereo not given) -14.2%, CCCc1nn2c(=O)cc(COC(=O)c3ccccc3NC(=O)c3ccc(Cl)cc3)nc2s1 -9.2%, CCOC(=O)c1ccccc1NC(=O)N1CCC(CN2CCCCC2)CC1 -6.43%, CCOc1ccc(NC(=O)CN2CCCN(Cc3cc(C)ccc3C)S2(=O)=O)cc1 -38.9%, Cc1ccc(NC(=O)C(C)Sc2nc(=O)cc(N)n2-c2ccccc2)cc1 (stereo not given) -6.21%, CCOC(=O)c1cccc(NC(=O)CCn2nc(C)c(S(=O)(=O)N3CCCCC3)c2C)c1 -29.1%, COc1ccc(S(=O)(=O)NCC(c2ccco2)N2CCOCC2)cc1C (stereo not given) -25.4%, COc1ccccc1N1CCN(S(=O)(=O)c2c(C)sc3ncn(CC(=O)Nc4ccccc4F)c(=O)c23)CC1 17.7%, COc1cccc(NC(=O)Cn2c(=O)n(-c3ccc(Cl)cc3)c(=O)c3sc4ccccc4c32)c1 -16.9%, O=C(Cn1c(=O)nc(-c2ccccc2)c2cc(Cl)ccc21)NCCc1ccc(Cl)cc1 -19.2%, CCc1ccc(NCc2cccn2-c2nnc(N3CCCCCC3)s2)cc1 -79.2%, CCN1CCN(c2ncc3c(n2)CCN(Cc2ccc(Br)s2)C3)CC1 -14.9%, CCc1ccc(-c2[nH]nc3nc(-c4ccc(OC)cc4)cc(C(=O)NCCc4ccc(OC)c(OC)c4)c23)cc1 -71.2%, CCOc1ccc(NC(=O)CSc2nnc(CNC(=O)c3c(F)cccc3Cl)o2)cc1 -8.82%, COc1ccc(NC(=O)Cn2c(=O)n(CCc3ccccc3)c(=O)c3ccccc32)cc1 9.4%, Cc1noc(-c2ccc(NCc3ccccc3)c([N+](=O)[O-])c2)n1 25.3%, COc1cccc(CNS(=O)(=O)c2cc3c(cc2C)n(C)c(=O)c(=O)n3C)c1 -0.57%, CCCCNC(=O)c1c(C)oc2ncn(CC(C)C)c(=O)c12 -26.5%, CCOc1ccc(NC(=O)Cn2nc(-c3ccncc3)ccc2=O)cc1 -6.32% [at 11.5 µM, percent change from vehicle, -100% = no light], O=C(c1cccc(Cl)c1)N1CCN(CCc2ccccn2)CC1 -12.2% [at 11.5 µM, percent change from vehicle, -100% = no light], O=C(NCc1nc2cccnc2n1Cc1ccc(F)cc1)c1ccccc1C(F)(F)F -24.9%, Cc1ccccc1OCC(=O)Nc1cc(-c2cccc(Br)c2)nn1-c1ccccc1 6.07%, Nc1c(-c2nc(-c3ccncc3)no2)nnn1CC(=O)Nc1ccccc1 -11.3%, COc1ccccc1CNCCSc1nnnn1C -8.38%, COc1ccc(C(=O)N(Cc2ccco2)Cc2ccco2)cc1 -1.5%, Cc1ccccc1CN1C(=O)c2ccccc2Sc2ccc(C(=O)NCc3cccs3)cc21 -19.7%, Cc1noc(/C=C/c2ccccc2F)c1S(=O)(=O)N1CCC(C(=O)N(C)Cc2ccco2)CC1 2.99%, CCC(=O)N1CCc2cc(Br)cc(S(=O)(=O)N3CCCC(C(=O)NCc4ccccc4)C3)c21 (stereo not given) -23.4%, COC(=O)c1c(N)n(-c2cc(Cl)cc(Cl)c2)c2nc3ccccc3nc12 -12.6%, CCCN1Cc2cccc(C(=O)Nc3cc(C)cc(C)c3)c2C1=O -6.77%, CC(=O)Nc1ccc(C)cc1-c1nc2ccccc2n(CC(=O)Nc2cc(Cl)ccc2C)c1=O -26.6%, COc1ccc(Cl)cc1NC(=O)CCC(=O)N1CCOc2ccccc21 -13.4%, O=C1c2cccc3c2[C@H](CCC3)CN1[C@@H]1CN2CCC1CC2 6.53%, COc1ccc(NC(=O)CSc2nc(-c3ccco3)cc(C(F)(F)F)n2)cc1 -25.5%, Cc1ccc2c(c1)N(C(=O)NCc1ccccc1)CCO2 -8.42%, CCC(C)NC(=O)c1ccc2c(=O)n3c(nc2c1)CCCCC3 (stereo not given) 21.7%, Cc1ccc(NC(=O)Cn2nnc3sc(-c4ccccc4)cc3c2=O)cc1Cl -3.31%, COc1ccc(C(=O)NCC2(N3CCN(C)CC3)CCCCC2)cc1 -8.69%, COC(=O)c1ccc(Cl)cc1NC(=O)N(Cc1ccc(C)o1)C1CCN(C(C)=O)CC1 -10.2%, CCC(CC)c1nn2c(=O)cc(COc3ccc(NC(=O)c4cccc(Cl)c4)cc3)nc2s1 -13.3%, COc1ccc(C)cc1NS(=O)(=O)c1ccc2c(c1)n(C)c(=O)n2C -9.44%, CCn1c(=O)c(=O)n(CC)c2cc(N3CCCCC3)c(NC(=O)c3cccc(F)c3)cc21 -8.77%, Cc1nnc2c(Nc3cccc(O)c3)nc3ccccc3n12 5.53%, Cc1ccc(Nc2nnc(-c3ccc(C)c(S(=O)(=O)N4CCOCC4)c3)c3ccccc23)c(C)c1 -34.1%, CCOc1ccc(C(=O)c2cn(Cc3ccc(Cl)cc3)c3cc(OC)c(OC)cc3c2=O)cc1 -36.3%, CCC(Cc1ccccc1)NC(=O)Cn1ncc2c3ccccc3n(Cc3ccccc3)c2c1=O (stereo not given) -27%, CCc1nc2nc(C)cc(Nc3ccc(OC)cc3OC)n2n1 -20.7%, Cc1oc(-c2ccc(Cl)cc2)nc1CN1CCC(C(=O)NCCCN2CCN(c3cccc(Cl)c3)CC2)CC1 -29.9%, CC(C)C1CCC(C(=O)N[C@H](Cc2ccccc2)C(=O)O)CC1 (stereo not given in full), Cc1ccc2c(c1)NC(=O)C(CC(=O)Nc1ccccc1Cl)O2 (stereo not given) -11.4%, Cc1cc(C)n2nc(SCC(=O)Nc3ccccc3C)nc2n1 13.2%, Cc1ccc(Cl)cc1N1CCN(C(=O)c2cc(S(=O)(=O)N3CCCC3)cn2C)CC1 -28.7%, COc1ccc(CC(=O)NCC(c2ccc(N(C)C)cc2)N2CCOCC2)cc1 (stereo not given) -9.21%
